# In all, about 420,000 compounds went through this assay and about 64,000 (15%) were called active. Inconclusive means that the source gave no clear call. Such entries were picked first, then a sample of the others. Calls follow the shape of the dose curve; as a rule, active = well fitted inhibition curve with a large enough effect; inconclusive = small, poorly fitted or top-dose-only effect; inactive = flat fitted curve, though single readings scatter. No potency is given beside an inconclusive call; the fits are too rough.
# Experiment: qHTS for Inhibitors of human tyrosyl-DNA phosphodiesterase 1 (TDP1): qHTS in cells in absence of CPT; also: nearly all actives have a fitted effect of over 55% in size
# Conditions: DT40 Tdp1-/- hTDP1 cells, no CPT, ATP luminescence, 48 h; activity change, negative = growth inhibition: at 46.2 µM (top of the series)
# In short: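 Growth kinetics read by CellTiter-Glo luminescence after ≥48 hr at 37 °C. Cells: DT40 Tdp1-/- stably carrying human TDP1, 400 per well, compound exposure in the absence of CPT (DMSO vehicle).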
# % is scaled to controls: 0 for no effect and ±100 for the full control effect; potency is read from the fitted curve at half-maximal effect; tags tell the direction and shape of the fitted curve.
SMILES,Potency,"activity change, negative = growth inhibition"
Cc1cccc(COCC(Cc2ccccc2)N2CCN(C(=O)c3cccc(Cl)c3)CCC2=O)c1 (stereo unspecified),active: 18.4 µM,
Cc1ccc(-c2noc(CN(C)C(=O)Nc3ccc(F)cc3)n2)cc1,,inactive: -21.4%
CCN(CC)C(=O)C1=C(C)Nc2nc3ccccc3n2C1c1ccccc1F (stereo unspecified),"inconclusive [inhibitor, single point]",
O=S(=O)(NC1CCCCC1Oc1ccccc1)c1ccc(Cl)cc1 (stereo unspecified),,inconclusive: -31% [inhibitor]
Cn1c(C(=O)N2CCCC(C(=O)O)C2)cc2sccc21 (stereo unspecified),,inactive: 0.753%
CCOc1cc(/C=N\NC(=O)c2ccc(NC(=O)CC)cc2)ccc1OC(=O)c1ccccc1,"inconclusive [inhibitor, single point]",
Cc1ccc(S(=O)(=O)NCC(=O)N(CC(=O)NCC2CCCO2)Cc2ccccc2Cl)cc1 (stereo unspecified),,inactive: -19.3%
CC(=O)c1ccc(N=C2NC(=O)C(CO)(CO)S2)cc1,,inactive: 22.4%
O=C(Nc1ccc(Cl)cc1)[C@@H]1[C@@H]2C(=O)N(c3ccc(Cl)cc3)C(=O)[C@@H]2[C@H]2C=CC=NN21,"inconclusive [inhibitor, single point]",
CSc1cccc(NC(=O)C2CCN(S(=O)(=O)c3cnc[nH]3)CC2)c1,"inconclusive [inhibitor, full curve]",
O=c1cc(O)c2ccc(O)cc2o1,"inconclusive [inhibitor, partial curve]",
Cc1cccc(N2CCN(Cc3nc(-c4cccc(Cl)c4)oc3C)CC2)n1,"inconclusive [inhibitor, single point]",
Cc1ccc(S(=O)(=O)N2C[C@H]3C(=O)C[C@@H](c4ccc(Cl)cc4)N(S(=O)(=O)c4ccc(C)cc4)[C@H]3C[C@H]2c2ccc(Cl)cc2)cc1,,inactive: -14%
COc1cccc(OC)c1OCCN1CCC(C(=O)NC(c2ccccc2)c2ncccc2C)CC1 (stereo unspecified),"inconclusive [inhibitor, single point]",
COc1ccccc1C(=O)NC(=O)CSc1nnnn1C,,inactive: 3.05%
CCOc1cc(-c2noc(CCC(=O)N3CCOCC3)n2)ccc1OC,"inconclusive [inhibitor, single point]",
C[C@@]12C(=O)Nc3cc(Cl)ccc3C(=O)N1[C@H]1c3cc(Br)ccc3OC[C@@H]1[C@@H]2c1ccccc1,active: 23.1 µM,
NC(=O)c1ccccc1NC(=O)c1ccccc1Cl,"inconclusive [inhibitor, single point]",
COc1ccccc1CNC(=O)c1cccc(S(=O)(=O)N(C)c2ccccc2)c1,"inconclusive [inhibitor, single point]",
COc1ccc(-c2csc(NC(C)c3nc4cc(Cl)c(Cl)cc4n3CCOCCO)n2)cc1 (stereo unspecified),active: 18.4 µM,
COC(=O)C1=CN(c2ccc(F)cc2)C=C(C(=O)OC)C1c1cccc(Br)c1,"inconclusive [inhibitor, single point]",
COc1ccc(Cl)cc1NC(=O)Cn1c(=O)n(-c2ccc(C)cc2)c(=O)c2ccc(C(=O)NCc3ccccc3Cl)cc21,"inconclusive [inhibitor, single point]",
Cc1ccc(C(=O)Nc2ccc3c4c(cccc24)CC3)cc1[N+](=O)[O-],"inconclusive [inhibitor, partial curve]",
COc1ccc(C(=O)Nc2cccc(OC)c2)cc1,"inconclusive [inhibitor, single point]",

SMILES,Potency,"activity change, negative = growth inhibition"
O=C(O)CC/C(=N\Nc1ccc([N+](=O)[O-])cc1)c1ccccc1,,inactive: 6.63%
O=CNc1cc(-c2cccc(F)c2)cn2c(-c3ccc(F)cc3)cnc12,"inconclusive [inhibitor, single point]",
COC(=O)c1c(NC(C)=O)sc(C(=O)Nc2ccccc2C)c1C,,inactive: 14.9%
O=C(COc1ccc2ccccc2c1)Nc1ccc(Br)cc1C(=O)O,,inactive: -13.3%
CC(NS(=O)(=O)c1ccc(Cl)cc1)C(=O)OCC(=O)c1ccc[nH]1 (stereo unspecified),,inactive: 4.89%
O=C(NCCCCNC(=O)c1cccnc1Cl)c1cccnc1Cl,,inactive: 18%
Cn1nnnc1SC1CC(=O)N(c2ccccc2)C1=O (stereo unspecified),active: 3.26 µM,
COc1ccc(N2CCN(CCNC(=O)C3CC(=O)N(C4CCCC4)C3)CC2)cc1 (stereo unspecified),,inactive: -7.71%
Clc1ccccc1N=Nc1ccccn1,,inactive: -8.23%
Cn1c(-c2c(N)n(-c3ccccc3)c3nc4ccccc4nc23)nc2ccccc21,"inconclusive [inhibitor, partial curve, poor fit]",
O=C(C(c1ccccc1)c1ccccc1)N1CCCc2ccccc21,"inconclusive [inhibitor, single point]",
COc1ccc(CNC(=O)Nc2ccc3c(c2)c(=O)n(C)n3Cc2cccc(C(F)(F)F)c2)cc1,active: 23.1 µM,
c1ccc(-c2ccc3c(c2)c2c4n3CCN=C4CCC2)cc1,"inconclusive [inhibitor, single point]",
CCN(CC)C(=O)c1sc(NC(=O)C(C)C)c(C#N)c1C,,inactive: -8.28%
COc1cc(C(O)P(=O)(OCC(C)C)OCC(C)C)cc(OC)c1OC (stereo unspecified),"inconclusive [inhibitor, single point]",
COC(=O)Cc1[nH]n(-c2nc3ccccc3s2)c(=O)c1C(C)=Nc1ccc(C)cc1,"inconclusive [inhibitor, single point]",
CC(C)(COC(=O)Nc1ccccc1)COC(=O)Nc1ccccc1,"inconclusive [inhibitor, single point]",
O=C(N/N=C/c1ccccn1)c1ccc(NC(=O)c2cccc([N+](=O)[O-])c2)cc1,"inconclusive [inhibitor, partial curve]",
CN1CCN(Cc2cn[nH]c2-c2ccc(F)cc2F)[C@@H](c2ccccc2)C1,,inactive: -14.4%
COc1cc(OC)c2c(c1)OC(=O)CC2c1cc(OC)c(OC)c(OC)c1 (stereo unspecified),,inactive: 4.96%
COc1ccccc1CNC(=O)CS(=O)Cc1nc(-c2ccccc2C)oc1C (stereo unspecified),"inconclusive [inhibitor, single point]",
Cc1ccc(NC(=O)C(OC(=O)c2ccc(C=O)cc2)c2ccccc2)cc1Cl (stereo unspecified),"inconclusive [inhibitor, single point]",
CCCCn1c(SCc2ccccc2C)nc2ccsc2c1=O,"inconclusive [inhibitor, partial curve]",
CC1CCN(S(=O)(=O)c2ccc([N+](=O)[O-])cc2)CC1,,inactive: 0.331%

SMILES,Potency,"activity change, negative = growth inhibition"
CCOC(=O)/C(C#N)=N\Nc1cc(Cl)ccc1OC,"inconclusive [inhibitor, single point]",
CCn1c(SCC(=O)N2CCN(C)CC2)nc2c1c(=O)n(C)c(=O)n2C,,inactive: -10.4%
Cc1ccc(N2C(=O)[C@@H]3[C@H](C2=O)C2c4ccccc4C=CN2[C@@H]3C(=O)c2ccco2)c(C)c1 (stereo partly specified),"inconclusive [inhibitor, single point]",
CC(=O)c1c(C)[nH]c(C(=O)CN2C(=O)NC(C)(c3ccc(C)cc3)C2=O)c1C (stereo unspecified),"inconclusive [inhibitor, single point]",
COc1ccc(CNC(=O)C(=O)NCC(c2ccco2)S(=O)(=O)c2cccs2)cc1 (stereo unspecified),"inconclusive [inhibitor, partial curve]",
Cc1ccccc1Oc1nc2c(C)cccn2c(=O)c1/C=C(\C#N)C(=O)Nc1c(C)n(C)n(-c2ccccc2)c1=O,active: 20.6 µM,
Nc1nc(Nc2ccccc2)sc1C(=O)c1ccccc1,"inconclusive [inhibitor, single point]",
CCc1nc2ccc(C(=O)NCc3ccc(OC)cc3)cn2c1N(C)C(=O)Cc1ccccc1,active: 20.6 µM,
C=C(C)Cn1c(SCC(=O)c2ccc(Br)cc2)nc2sc3c(c2c1=O)CCCC3,,inactive: 0.241%
CC1=C(C#N)C(NC(=O)c2ccccc2)(C(F)(F)F)C(=O)N1 (stereo unspecified),,inactive: -2.75%
c1ccc(CN2CCC(Nc3nc(-c4cccs4)nc4ccccc34)CC2)cc1,active: 18.4 µM,
COc1ccc(NC(=O)N(C)C[C@H]2Oc3ccc(NC(=O)Cc4ccccc4)cc3C(=O)N([C@H](C)CO)C[C@@H]2C)cc1,,inactive: 3.68%
CNC(=O)N(O)C1N(/N=C/c2c(F)cccc2Cl)C(=S)SC1(C)C (stereo unspecified),,inactive: 9.11%
CCCCNC(=O)CCc1c(C)nc2nc(-c3cc(OC)cc(OC)c3)nn2c1C,"inconclusive [inhibitor, partial curve, poor fit]",
Cc1cc(=O)[nH]c(SCC(=O)c2ccccc2)c1C#N,,inactive: -8.73%
Cc1ccc(S(=O)(=O)c2nc(-c3cccs3)oc2SCc2ccc(F)cc2)cc1,active: 10.3 µM,
Cc1cccc(OCCSc2cc(C)nc(N)n2)c1,"inconclusive [inhibitor, partial curve]",
CC(C)c1ccccc1NC(=O)C(Cc1c[nH]c2ccccc12)NC(=O)OC(C)(C)C (stereo unspecified),"inconclusive [inhibitor, single point]",
CCN(CC)c1ccc(/C=N/N2C(C)CCCC2C)c(O)c1 (stereo unspecified),"inconclusive [inhibitor, single point]",
Cc1c(CN(C)C)c2c(n1C)C(=O)c1ccc(Br)cc1-2,"inconclusive [inhibitor, single point]",
COc1ccc(CC(=O)Nc2nc(OCC(F)(F)F)cnc2-c2ccc(Cl)cc2Cl)cc1,"inconclusive [inhibitor, single point]",
O=[N+]([O-])c1ccc(NN=Cc2cccc([N+](=O)[O-])c2)cc1,"inconclusive [inhibitor, single point]",
CCc1ccc(/C=N/NC(=O)c2cc(C)on2)s1,,inactive: -0.516%
